# According to PMC6919601, “Identification of Plasmodium dipeptidyl aminopeptidase allosteric inhibitors by high throughput screening” (PLoS ONE, 2019):
# Hit rate of the full screen: of about 110,000 compounds, about 230 (0.21%) showed an effect of 50% or more. This is one part of the list.
# Target: DPAP1 (Plasmodium falciparum, UniProt Q8IIJ9)
# Test: primary screen, percent inhibition; read by cleavage of a fluorogenic dipeptide substrate; higher = more effect of the substance
# Parameters: species or system P. falciparum D10 trophozoite lysates; single well
# 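Also: 30 min substrate incubation versus DMSO and 10 µM JCP410 controls.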
# Chain of DPAP1 (Q8IIJ9 whole entry, looked up): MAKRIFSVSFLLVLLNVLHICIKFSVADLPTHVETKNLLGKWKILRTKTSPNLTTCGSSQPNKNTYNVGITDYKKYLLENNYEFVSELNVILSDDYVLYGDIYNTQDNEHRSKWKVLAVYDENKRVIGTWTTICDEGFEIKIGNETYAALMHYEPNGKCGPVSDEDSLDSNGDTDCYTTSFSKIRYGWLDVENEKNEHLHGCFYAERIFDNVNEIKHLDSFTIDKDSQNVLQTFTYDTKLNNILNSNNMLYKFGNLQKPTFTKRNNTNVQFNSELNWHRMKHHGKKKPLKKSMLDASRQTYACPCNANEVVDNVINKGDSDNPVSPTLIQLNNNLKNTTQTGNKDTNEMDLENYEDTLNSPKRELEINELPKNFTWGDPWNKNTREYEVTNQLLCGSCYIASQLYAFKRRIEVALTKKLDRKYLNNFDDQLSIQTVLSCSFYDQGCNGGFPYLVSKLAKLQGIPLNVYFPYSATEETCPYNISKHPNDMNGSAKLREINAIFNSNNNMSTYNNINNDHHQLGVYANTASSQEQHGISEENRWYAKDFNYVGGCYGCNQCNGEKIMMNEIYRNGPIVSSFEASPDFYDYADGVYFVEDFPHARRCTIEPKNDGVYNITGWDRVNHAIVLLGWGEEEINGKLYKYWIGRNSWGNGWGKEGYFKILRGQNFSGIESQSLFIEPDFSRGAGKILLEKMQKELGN
row,Compound,% Inhibition @ 10 uM [%]
1,Clc1ccc2nc(NC3=NCN(CCN4CCOCC4)CN3)nc(-c3ccccc3)c2c1,-1.69
2,CCOc1cc2c(cc1/C=C1/SC(=O)N(Cc3ccccc3)C1=O)OCO2,-14.4
3,COC(=O)C1=CN(C(C)C)C=C(C(=O)OC)C1c1cccc(Oc2ccccc2)c1,4.99
4,COc1cc(S(=O)(=O)N2CCN(c3ccc(C)cc3)CC2)c(OC)cc1Br,1.28
5,c1ccc(-c2nc(-c3ccccc3)c(-c3ccccc3)[nH]2)cc1,-1.76
6,CCOC(=O)c1c2c(c(S)sc1=N)CCC2,5.59
7,CC1(C)Oc2ccc3ccc(=O)oc3c2/C(=C/c2ccc([N+](=O)[O-])cc2)C1=O,3.74
8,CSc1nc2c(sc3ccccc32)c(=O)n1CC1CCCO1 (stereo not drawn),3.05
9,O=C(CC1CC2CCC1C2)N1CCN(Cc2ccc(Cl)cc2)CC1 (stereo not drawn),-1.46
10,O=C(C1=C(O)C(=O)N(c2ncccn2)C1c1cccc(F)c1)c1ccccc1 (stereo not drawn),-6.62
11,NC(=O)C1CCCN(Cc2cccc(Cl)c2Cl)C1 (stereo not drawn),-2.95
12,COc1ccc(CCN2C(=O)C3C4CCC(C4=C(C)C)C3C2=O)cc1OC (stereo not drawn),-2.8
13,NC(=O)c1c(NC(=O)COCc2cc(-c3cccs3)on2)sc2c1CCCC2,3.62
14,CC1(C)[C@H]2CC=C(CN3CCN(c4ccccc4)CC3)[C@@H]1C2,-0.446
15,Cc1cccc(-n2nnc(C(=O)N3CCc4ccccc4C3)c2N)c1,-4.38
16,COc1ccc(NC(=O)CN(c2cc(C)ccc2OC)S(C)(=O)=O)c(OC)c1,2.33
17,Cc1ccccc1-n1c(C)nc2ccsc2c1=O,-1.12
18,CC(C)c1ccc(-c2c(NCCCN3CCN(C4CCCCC4)CC3)c(=O)c2=O)cc1,1.42
19,O=C1CC(c2cc(F)ccc2F)c2cc3c(cc2N1)OCO3 (stereo not drawn),0.475
20,O=C(Nc1ccc(S(=O)(=O)N2CCCC2)cc1)C(c1ccccc1)c1ccccc1,-3.97
21,CCOc1c(O)cc2c(C)cc(=O)oc2c1OCC,1.8
22,COC(=O)C1=C(C)N(Cc2ccco2)C(=O)/C1=C\c1ccc(Cl)c(Cl)c1,0.131
23,CCOc1ccc(C(=O)Nc2ccc(N(CC)CC)cc2)cc1,0.13
24,Cc1ccc(-c2cc(-c3ccccc3)nc(Cl)n2)cc1,9.86
25,CCOc1cc(C=C2C(=O)c3ccccc3C2=O)cc(Br)c1O,0.275
26,CCOc1ccc(N2CC(=O)NC2=O)cc1,-4.18
27,CC(=O)N1CCC2(CC1)OC(=O)C(C)=C2C(=O)NCc1ccc(C)cc1,-1.04
